Measured values from PubChem BioAssay AID1963576 (National Center for Advancing Translational Sciences (NCATS), 2024).
Out of some 46,000 compounds screened, about 60 (0.1%) were called active. About 3% were inconclusive and are not listed. The call rests on the fitted dose curve; in most records, active means well fitted inhibition curve with a large enough effect; inconclusive means small, poorly fitted or top-dose-only effect; inactive means no such curve, though single readings can be large or run the other way. Some of the results follow.

Experiment: Primary qHTS assay for Inhibitors of ovarian cancer metastasis using an organotypic tumor microenvironment (TME) model. Further: nearly all actives have a fitted effect of over 65% in size.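 On activity change, negative = inhibition: plate controls were DMSO wells for no effect and tomatine positive control wells for full effect.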
Conditions: SKOV3ip1-GFP adhesion/invasion on 3D omental model, fluorescence; series mostly up to 45.8 µM; activity change, negative = inhibition: at the top concentration
Procedure, shortened: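 Primary human omental fibroblast/mesothelial 3D culture pre-formed 48 h. SKOV3ip1-GFP cells added with compounds (0.36-46 umol/L), incubated 2 h RT/16 h 37 C, fixed; GFP cells quantified at 488/509 nm.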

Structure (SMILES)	activity change, negative = inhibition	outcome
CCc1ccc2nc(N(Cc3cccnc3)C(=O)c3cccs3)sc2c1	inactive: -8.07%	–
COCCn1c(SCC(=O)c2ccccc2)nc2cc(C(=O)NC3CCCC3)ccc2c1=O	inactive: -10.7%	–
CCCC(=O)Nc1ccc(NC(=O)c2sc3ccccc3c2Cl)cc1	inactive: 0.314%	–
COc1ccc(C(=O)N2CCN(C(=O)COc3ccc(Br)cc3)CC2)cc1OC	inactive: 5.15%	–
CCCCN(C)CCCNC(=O)Cn1nc(CC)n2c(cc3sc(C)cc32)c1=O	–	inactive
Cc1cc2c(cc1C)C(c1cccc(OC(C)C)c1)CC(=O)N2 (stereo not given)	–	inactive
COc1ccc(NC(=O)CN(c2cccc(C)c2C)S(=O)(=O)c2ccccc2)cc1OC	inactive: 13.8%	–
CCOC(=O)CSC1=Nc2ccccc2C2=NC(CCC(=O)NCc3ccccc3)C(=O)N12 (stereo not given)	inactive: -19.5%	–
CC(=O)c1cccc(NC(=O)c2noc3c2CC(C)CC3)c1 (stereo not given)	inactive: 2.44%	–
O=C(CSc1nnc(-c2cccs2)o1)Oc1ccc(Cl)cc1	inactive: 10.2%	–
CCCCNC(=O)C1CCCN(c2nnc(C)c3c(C)n(-c4ccc(Cl)cc4)nc23)C1 (stereo not given)	inactive: 4.38%	–
CC1CN(C(=O)N2CCC(C(=O)NCCC3=CCCCC3)CC2)c2ccccc2O1 (stereo not given)	inactive: 1.4%	–
COc1cc2c(=O)c(S(=O)(=O)c3ccc(C)cc3)cn(Cc3cccc(C)c3)c2cc1OC	inactive: -10.3%	–
CCOC(=O)C1(C)C=C(Nc2ccc(C)cc2)C(=O)N1c1ccccc1 (stereo not given)	inactive: 26.2%	–
CCN(CC)CCN(C(=O)c1ccc(C(=O)OC)cc1)c1nc2ccc(Cl)cc2s1	inactive: -9.71%	–
CSc1cccc(NC(=O)C2CCN(S(=O)(=O)c3ccc4[nH]c(=O)ccc4c3)CC2)c1	–	inactive
CC(=O)c1ccc(NC(=O)CSc2nccn2Cc2ccco2)cc1	–	inactive
CC(C)c1ccc(S(=O)(=O)Nc2ccc(O)c(Sc3nc4ccccc4s3)c2)cc1	–	inactive
O=C(Nc1ccc2nn(-c3ccc(F)cc3)nc2c1)c1cccc2c(Cl)cccc12	inactive: 7.61%	–
Cc1ccc(C(=O)Nc2nnc(SCc3cc(=O)c4c(C)ccc(C)c4[nH]3)s2)cc1	–	inactive
O=C(C1COc2ccccc2O1)N(Cc1cccnc1)c1nc2c(F)cc(F)cc2s1 (stereo not given)	–	inactive
COCCNc1cc(N2CCN(C3CCCCC3)CC2)c2noc3c2c1C(=O)c1ccccc1-3	–	inactive
CCOc1ccccc1NC(=O)c1ccc2c(c1)CCCN2S(C)(=O)=O	inactive: -0.653%	–
COc1cccc(C(=O)N2CCC(c3nc4ccccc4s3)CC2)c1	inactive: 1.85%	–

Structure (SMILES)	activity change, negative = inhibition	outcome
CCc1nnc(SCc2nc(-c3ccccc3F)oc2C)c2cc3sccc3n12	inactive: -8.66%	–
CCOc1ccccc1NC(=O)c1c(NCc2ccc(OC)c(OC)c2OC)sc2c1CCC(C)C2 (stereo not given)	inactive: -13.3%	–
COC(=O)c1cccc(Nc2c(-c3cc(Br)ccc3O)nc3nc[nH]n23)c1	inactive: 12.2%	–
Cc1cc(C)cc(OCC(=O)Nc2ccc(-c3nc4ncccc4o3)cc2C)c1	–	inactive
Cc1ccc(Cl)cc1N1CCN(C(=O)c2c(C)oc3ncnc(N4CCOCC4)c23)CC1	inactive: -5.82%	–
COc1cccc(C(=O)N2CCC(N3CCN(Cc4ccc(F)cc4)C(=O)C3=O)CC2)c1	–	inactive
CCCCCNC(=O)C1CCC(Cn2c(=O)c3sccc3n(CC(=O)N3CCCC3)c2=O)CC1 (stereo not given)	inactive: -4.79%	–
COc1ccc(NC(=O)CSc2nnc(-c3nnn(-c4ccc(F)cc4)c3C)o2)cc1	–	inactive
O=C(CC1N=C2c3ccccc3N=C(SCc3cccc(Cl)c3)N2C1=O)NC1CCCCC1 (stereo not given)	–	inactive
Cc1ccc(OCC(=O)Nc2cccc(C(=O)OCc3cc(=O)n4cc(C)sc4n3)c2)cc1	–	inactive
Cc1cccc(-c2noc(-c3ccc(NC4CCCC4)c([N+](=O)[O-])c3)n2)c1	inactive: -12.3%	–
Cc1cc2n(n1)CCCN2C(=O)Nc1ccccc1F	inactive: -3.26%	–
Cc1ccc(Cl)cc1-n1c(=O)cc(N2CCN(c3ccccc3)CC2)[nH]c1=O	inactive: -2.03%	–
Cn1c(=NC(=O)c2ccc(F)cc2)sc2cc(Br)ccc21	–	inactive
CCOCN(C(=O)Cn1c(C)nc2ccccc21)c1c(C)cccc1CC	inactive: -0.811%	–
CCOC(=O)c1c(S(=O)(=O)N2CCN(c3ccccc3OC)CC2)c(C)n(C)c1C	inactive: 1.16%	–
COc1cccc(C(=O)Nc2ccccc2-c2nc(-c3ccc(C)cc3)no2)c1	inactive: -7.32%	–
Cc1ccc(N2C(=O)c3n[nH]c(C)c3C2c2ccc(C(C)C)cc2)cc1 (stereo not given)	–	inactive
CCc1ccccc1NC(=O)CC(C)n1nc(C)cc1C (stereo not given)	inactive: 11.1%	–
O=c1c2cc3c(cc2n(Cc2cccc(F)c2)c(=O)n1Cc1nc(-c2ccccc2)no1)OCO3	inactive: -1.67%	–
c1ccc(N2CCN(c3ncnc4[nH]ncc34)CC2)cc1	inactive: -11.3%	–
CC(=O)c1cccc(NC(=O)c2sc3nc4c(cc3c2N)CCCC4)c1	inactive: -6.24%	–
COc1cc(OC)c(NC(=O)NCc2ccc3c(c2)CCN3C(C)=O)cc1Cl	inactive: 0.761%	–
CCc1ccccc1N1C(=O)N(Cc2cccc(Cl)c2)c2ccccc2S1(=O)=O	inactive: 2.47%	–

Structure (SMILES)	activity change, negative = inhibition	outcome
CC(C)(C)OC(=O)N1CCC(c2c(C(=O)N3CCN(C(=O)c4ccco4)CC3)cnn2-c2ccc(Cl)cc2)CC1	–	inactive
CCCNS(=O)(=O)c1cc(-c2nnc3c4ccccc4c(C)nn23)ccc1OC	inactive: -2.59%	–
Cc1cccn2c(=O)c(C(=O)NCCc3ccc(Cl)cc3)cnc12	inactive: -11.1%	–
CC(=O)c1ccc(NC(=O)C2CCC(CNS(=O)(=O)c3cccc4nsnc34)CC2)cc1 (stereo not given)	inactive: -0.253%	–
COc1ccc(S(=O)(=O)N(CCc2ccccc2)CC(=O)NCc2ccccc2)cc1OC	–	inactive
COCCN1C(=O)c2[nH]nc(-c3c(C)cc(C)cc3O)c2C1c1cccc(O)c1 (stereo not given)	inactive: 6.53%	–
CCc1ccc(NCc2cc3ccc(OC)cc3n(CC(=O)Nc3cccc(Cl)c3C)c2=O)cc1	–	inactive
CCOc1ccc(NC(=O)C2CCCN(c3nnc(-n4c(C)ccc4C)s3)C2)cc1 (stereo not given)	inactive: -0.146%	–
Cc1ccc(Cl)cc1NC(=O)c1cccc(NC(=O)N2CCSc3ncccc32)c1	inactive: 6.3%	–
Cc1ccc(-c2nnc(Nc3ccc(Br)cc3)c3ccccc23)cc1S(=O)(=O)NCc1nc2ccccc2[nH]1	–	inactive
Cc1ccc(C(=O)NCc2nnnn2-c2ccc(C)c(C)c2)cc1	inactive: -20.4%	–
Cc1cccc(NC(=O)c2sc3nc4c(cc3c2N)CN(Cc2ccccc2)CC4)c1	inactive: -19.5%	–
CCOc1ccccc1NC(=O)C(C)Sc1nc(-c2ccccc2)c(C#N)c(=O)[nH]1 (stereo not given)	inactive: 14%	–
COc1ccccc1NC(=O)c1oc2ccccc2c1NC(=O)c1ccccc1C(F)(F)F	inactive: -20.6%	–
CCCCOc1ccc(C(=O)NCCc2sc(-c3cccc(F)c3)nc2C)cc1	inactive: 2.3%	–
Cc1ccc(C)c(Cn2c(=O)n(Cc3ccc4c(c3)OCO4)c(=O)c3oc4ccccc4c32)c1	inactive: 17.8%	–
O=C(Nc1ccc(NC(=O)c2cccs2)cc1)c1cccc(Br)c1	inactive: 10.3%	–
Cc1cc2nc(-c3ccc(OCc4ccc(F)cc4)cc3)cc(C(F)(F)F)n2n1	inactive: -14.1%	–
COC(=O)c1ccc(NC(=O)CC2C(=O)N(c3ccc(F)cc3)C(=O)N2Cc2ccc(OC)cc2)cc1 (stereo not given)	inactive: 11.5%	–
CCOc1ccc(/C=C/c2nc(C#N)c(NC(C)CC)o2)cc1 (stereo not given)	inactive: -2.64%	–
Cc1nc2sc(C(=O)Nc3ccc(F)cc3)c(N)c2c(-c2ccc(Br)cc2)c1C(=O)Nc1ccc(Cl)cc1	inactive: 10%	–
CCc1cccc(NC(=O)c2cnc(SC)nc2-c2ccccc2)c1	inactive: 7.11%	–
O=C(Cn1ncc2c3ccccc3n(Cc3ccc(Cl)cc3)c2c1=O)NCc1cccs1	inactive: 7.75%	–
COc1ccc(N2CCN(S(=O)(=O)c3ccc(OC)c(-c4noc(C)n4)c3)CC2)cc1	inactive: -15.1%	–

Structure (SMILES)	activity change, negative = inhibition	outcome
CCOc1ccc(Sc2cc(C(=O)NC(C)CC)c3ccccc3n2)cc1 (stereo not given)	inactive: -21.6%	–
COc1ccc(-c2cn3nc(N4CCC(C(=O)Nc5cccc(OC)c5)CC4)sc3n2)cc1	inactive: 4.44%	–
COc1ccc(NC(=O)CSc2nc3ccncc3[nH]2)c(OC)c1	–	inactive
Cc1ccc(C2CC(=O)N(Cc3ccccc3)c3c2c(C)nn3-c2nc(C)cc(C)n2)cc1 (stereo not given)	inactive: -1.48%	–
CC1CN(C(=O)N2CCC(C(=O)NCCC3=CCCCC3)CC2)c2cc(Cl)ccc2O1 (stereo not given)	–	inactive
CCc1ccc(NC(=O)CSc2nccn2-c2cccc(C)c2C)cc1	inactive: -20.4%	–
CCc1ccc(NC(=O)c2ccc(F)c(S(=O)(=O)N(C)C3CCCCC3)c2)cc1	–	inactive
O=C(C1CCCN(S(=O)(=O)c2ccc(Br)s2)C1)N1CCN(c2ccc(F)cc2)CC1 (stereo not given)	inactive: -4.03%	–
O=c1cc(-c2ccc(F)cc2)nc(SCc2nc(-c3cccc(Cl)c3)no2)[nH]1	inactive: 8.76%	–
Cc1cc(NC(=O)CSc2nc3c([nH]c4ccccc43)c(=O)n2-c2ccccc2)no1	inactive: -6.26%	–
Cc1ccc(Cl)cc1-n1ncc2c(NCCCn3ccnc3)ncnc21	inactive: 9.85%	–
Cc1ccc2c(=O)cc(C(=O)Nc3sc4c(c3C(N)=O)CCCC4)oc2c1	inactive: -16.3%	–
O=C(C1CCN(S(=O)(=O)Cc2ccccc2)CC1)N1CCN(c2ccc(F)cc2)CC1	inactive: -7.42%	–
Cc1ccc(C)n1-c1c(C(=O)NCCCN2CCN(c3ccc(F)cc3)CC2)sc2ncccc12	inactive: -17.7%	–
CCOC(=O)c1cc(C)n(CC2CCC(C(=O)Nc3ccc(OCC)cc3)CC2)c1C (stereo not given)	inactive: -0.719%	–
COc1cc(NC(=O)c2nc3ccccc3nc2C)cc(OC)c1OC	–	inactive
Cc1ccc2oc(-c3cc(NC(=O)c4ccc5c(c4)OCCO5)cc(C)c3O)nc2c1	inactive: 32.5%	–
Cc1ccc(C)c(CN2C(=O)C3(c4ccccc42)N(c2cccc(C(F)(F)F)c2)C(=O)CS3(=O)=O)c1 (stereo not given)	–	inactive
COc1ccc(C2C(=O)N(C3CCCCC3)CC(=O)N2CCc2ccc(OC)c(OC)c2)cc1 (stereo not given)	–	inactive
CC1=C(C(=O)OCC(C)C)C(c2ccc(OCc3ccccc3)cc2)N2C(=O)CCSC2=N1 (stereo not given)	inactive: 1.25%	–
Cc1ccc(-n2nc(C(=O)Nc3ccc(Cl)cn3)c3c4ccccc4n(C)c3c2=O)cc1	inactive: -3.15%	–
Cc1ccccc1OCc1ccc(-c2nc(C#N)c(N3CCN(C)CC3)o2)o1	inactive: -29.9%	–
Cc1ccc(Cl)cc1N1CCN(C(=O)c2cccn3c(=O)c4cc(Cl)ccc4nc23)CC1	inactive: -0.729%	–
